Measured values from PubChem BioAssay AID624418 (National Center for Advancing Translational Sciences (NCATS), 2012).
Values joined by “and” are separate entries in the source; they are usually repeats but may differ in a detail not shown here. Equal values may be shown once. The whole screen tested about 410,000 compounds, of which about 530 (0.13%) were called active. The shares of active, inactive and inconclusive entries below differ from those in the screen. The call rests on the fitted dose curve; in most records, active means well fitted inhibition curve with a large enough effect; inconclusive means small, poorly fitted or top-dose-only effect, or another doubt; inactive means no such curve, though single readings can be large or run the other way. Potencies beside an inconclusive call are fits to weak or partial responses and may not hold up.

assay: qHTS of GLP-1 Receptor Inverse Agonists: Cytotox Screen; conditions: HEK293 cAMP-luciferase reporter cells, luminescence, 24 h; activity change, negative = inhibition: at 38.3 µM (top of the series) unless noted
In short: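 A 23 nL compound transfer followed 12 hours of cell culture at 37 deg C; exposure then lasted 24 hr. Luciferase assay detection reagent was dispensed and plates read for luminescence after a 12 min room-temperature wait.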
On the % scale 0 is the no-effect control and ±100 the full control effect; potency means the concentration at half of the fitted maximal effect.

Row | SMILES | Potency | activity change, negative = inhibition
1 | CC(=O)N1CCN(c2ccccc2NC(=O)c2ccc3ccccc3c2)CC1 | inconclusive: 0.501 µM [inhibitor, full curve, poor fit] | 
2 | CC(C)Oc1cccc(C(=O)NC(=S)Nc2cccc(C(F)(F)F)c2)c1 | inconclusive: 12.6 µM [inhibitor, single point] | 
3 | Cc1cccc(Nc2nc(N)c([N+](=O)[O-])c(N3CCC(C)CC3)n2)c1 | inconclusive: 12.6 µM [inhibitor, single point] | 
4 | CC(SC(C)C(=O)NN=Cc1cccc(F)c1)C(=O)NN=Cc1cccc(F)c1 (centres undefined) |  | inactive: -4.77%
5 | O=C(NC(Nc1ccccn1)C(Cl)(Cl)Cl)c1ccccc1 (centres undefined) | inconclusive: 28.2 µM [inhibitor, single point] | 
6 | O=C1c2[nH]nc(-c3ccccc3O)c2C(c2ccc(Cl)cc2)N1Cc1ccco1 (centres undefined) |  | inactive: -28.1%
7 | CCOC(=O)c1[nH]c2ccc(F)cc2c1NC(=O)CN1CCN(C/C=C/c2ccccc2)CC1 | inconclusive: 10 µM [inhibitor, partial curve, poor fit] | 
8 | c1ccc2c(NC3CCCC3)nnc(NC3CCCC3)c2c1 | inconclusive: 11.2 µM [inhibitor, single point] | 
9 | O=C(c1ccc(C(F)(F)F)cc1)N1CCC(=O)N(C(COCc2ccccc2)Cc2ccccc2)CC1 (centres undefined) | inconclusive: 28.2 µM [inhibitor, single point] | 
10 | CCC(=O)N1CCN(c2ccc(NC(=O)c3ccc([N+](=O)[O-])o3)cc2Cl)CC1 | inconclusive: 4.47 µM [inhibitor, full curve] | 
11 | COC(=O)C1=C(O)/C(=C\c2cc(C)n(-c3ccc(F)cc3)c2C)N=C1C |  | inactive: 1.61%
12 | O=C(NC(=S)Nc1cc(-c2nc3ccccc3[nH]2)ccc1Cl)c1ccc2c(c1)OCO2 | inconclusive: 1.41 µM [inhibitor, full curve, poor fit] | 
13 | O=C1NC(Cc2ccc(O)cc2)c2nc3ccc(F)cc3c(=O)n2-c2cc3ccccc3cc21 (centres undefined) | inconclusive: 5.62 µM [inhibitor, partial curve] | 
14 | O=C1NC[C@@H](c2ccccc2)OC(=O)[C@H](Cc2ccc(F)cc2)C/C=C\C[C@@H]1CC(=O)N(CCO)Cc1ccccc1 | inconclusive: 0.501 µM [inhibitor, full curve, poor fit] | 
15 | Cc1ccn2c(Nc3ccccc3C)c(-c3ccccn3)nc2c1 | inconclusive: 11.2 µM [inhibitor, partial curve, poor fit] and inconclusive: 25.1 µM [inhibitor, single point] | 
16 | NC(Cc1ccc(C(F)(F)F)cc1)c1csc(Nc2ccc(S(N)(=O)=O)cc2)n1 (centres undefined) | inconclusive: 11.2 µM [inhibitor, single point] | 
17 | COc1ccc(NC(=S)NN(C)C(=S)Nc2ccc(OC)cc2)cc1 | inconclusive: 2.51 µM [inhibitor, partial curve, poor fit] | 
18 | COc1cc(-c2noc(C)c2C(=O)NCCc2c[nH]c3ccccc23)cc(OC)c1OC | inconclusive: 28.2 µM [inhibitor, single point] | 
19 | COc1ccccc1/C=C1\SC(=S)N(CCC(=O)N2CCCCC2CCO)C1=O (centres undefined) | inconclusive: 8.91 µM [inhibitor, partial curve] | 
20 | CC(=O)c1ccc(OCc2ccc(Oc3c(Cl)cccc3[N+](=O)[O-])cc2)cc1 | inconclusive: 28.2 µM [inhibitor, single point] | 

Row | SMILES | Potency | activity change, negative = inhibition
21 | Cc1ccc(/C=C2\SC(=S)N(CCC(=O)NCCCN3CCOCC3)C2=O)cc1 | inconclusive: 8.91 µM [inhibitor, partial curve] | 
22 | O=C(NCCNc1ccc(Cl)cc1[N+](=O)[O-])c1cccnc1 | inconclusive: 28.2 µM [inhibitor, single point] | 
23 | CC(C)Nc1cc(C(F)(F)F)nc(-c2ccccn2)n1 | inconclusive: 28.2 µM [inhibitor, single point] | 
24 | C=CCn1c(CSc2nc3ccccc3s2)nnc1SCC(=O)NCc1ccccc1 | inconclusive: 28.2 µM [inhibitor, single point] | 
25 | O=C(CC(=O)Nc1ccccc1)Nc1ccccc1 | inconclusive: 1.26 µM [inhibitor, partial curve, poor fit] | 
26 | Cc1cc(N2CCCCC2)nc2ccc(NC(=O)c3ccc(Br)o3)cc12 | inconclusive: 7.94 µM [inhibitor, partial curve, poor fit] | 
27 | Cc1ccc(-c2c[nH]c(=S)n2-c2ccccc2)cc1 | inconclusive: 11.2 µM [inhibitor, single point] | 
28 | CCOc1cc(C(=O)Nc2cc(C)ccc2C)ccc1OCC(=O)N1CCCCC1 |  | inactive: -5.17%
29 | CCCN(CCC)S(=O)(=O)c1ccc(N2CCCC2=O)c([N+](=O)[O-])c1 |  | inactive: 4.54%
30 | Oc1ccccc1-c1cc(C(F)(F)C(F)F)nc(-c2ccccc2)n1 |  | inactive: 1.57%
31 | S=C(NCCc1ccccc1)NN=C1CCCCCC1 | inconclusive: 22.4 µM [inhibitor, single point] | 
32 | Cc1cc(-c2n[nH]c(=S)n2/N=C/C(Br)=C/c2ccccc2)n[nH]1 | inconclusive: 7.08 µM [inhibitor, partial curve, poor fit] | 
33 | COc1ccc(CC(=O)Nc2cccc(-c3csc(C)n3)c2)cc1 |  | inactive: 9.64%
34 | CN(C)c1ccc(C(C(=O)NC2CCCCC2)N(Cc2ccco2)C(=O)c2snc(C(N)=O)c2N)cc1 (centres undefined) | inconclusive: 28.2 µM [inhibitor, single point] | 
35 | COc1ccc(/C=C2\CCc3ccccc3C2=O)cc1O | inconclusive: 4.47 µM [inhibitor, full curve] | 
36 | COc1ccc(-c2csc(N(CCCN(C)C)C(=O)c3ccc(Br)cc3)n2)cc1 | inconclusive: 22.4 µM [inhibitor, single point] | 
37 | COCCNC(=O)CCc1nnc2ccc(N3CCC(C)CC3)nn12 |  | inactive: 11.5%
38 | CCCCC(=O)NC(c1ccc(OC)c(OC)c1)c1ccc2cccnc2c1O (centres undefined) | inconclusive: 1.78 µM [inhibitor, full curve, poor fit] | 
39 | CCn1c(=O)cc(OCC(=O)Nc2ccc(OC)c(OC)c2)c2ccccc21 | inconclusive: 14.1 µM [inhibitor, single point] | 
